± gives the standard deviation of the averaged measurements. The list shows a part of the results.
System: PfAP2-LT AP2 domain (GST-tagged)
Assay: gcPBM binding intensity (ln(normalized median fluorescence intensity)); higher = stronger DNA binding
Summary of the method: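 An Agilent 4 × 180k array carrying primer-extended double-stranded 36-bp intergenic genomic probes and negative controls received GST-tagged P. falciparum DNA-binding domains expressed in E. coli, about 25 μg on average, for 1 h. The binding buffer contained 1× PBS, 1% milk, 0.2 mg/ml BSA, 0.5% salmon testes DNA and 0.03% Triton X-100. Binding intensity is the top Masliner-normalised natural-log median intensity across replicate spots of either probe orientation, read after Alexa488 anti-GST antibody staining and a 488 nm scan.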

| Sequence | gcPBM binding intensity (ln) |
| --- | --- |
| AAGAGTTTGAAGTTTGCACACTACGTTAAAAATAAA [CACACA_site3939] | 8.72 ± 0.59 |
| AATATAATGTAATATACACACATATATTTCTCTTTT [CACACA_site5451] | 8.95 ± 0.45 |
| CCACATTTTACAGACACACACAATTTATATTACGGT [CACACA_site1894] | 9.3 ± 0.34 |
| AAAAATTTATTTTTAGGTACACAATTGAATTATTTA [XGTACX_site7008] | 8.34 ± 0.47 |
| TGTAGTCTGGAGAAAAGTACATAGTATCTGATAACC [XGTACX_site2018] | 8.77 ± 0.5 |
| GTGCATATATGATATACACACAATATAATAGTATGT [CACACA_site2460] | 9.17 ± 0.4 |
| CCTCCCATTTTTACACGTACACATTTAAAATAGACT [XGTACX_site5640] | 8.95 ± 0.21 |
| TGAAGAAAATATTAATGTACATATTATATATATATA [XGTACX_site5497] | 8.76 ± 0.3 |
| ATATATTTAAATAAAAGTACGTAAAGGTATATTTAA [XGTACX_site8088] | 8.88 ± 0.44 |
| ATAATAAAAAAAAAATGTACATAAATCTAAAATCCT [XGTACX_site5823] | 8.88 ± 0.54 |
| ATTATAAATATAAATATAAATATATATTGTTCCGCA [TGCATGCA_negctrl_site470] | 8.54 ± 0.4 |
| TTTATCCTTCTTTTGAGTACTCAAAGAGACCTATAA [XGTACX_site8050] | 8.53 ± 0.67 |
| AAAAAAAACAGACACACACACAAATATTTATATATC [CACACA_site6342] | 9.74 ± 0.25 |
| TATATATATATATATATATATATTTTTATTATATAT [XGTACX_negctrl_site89] | 9.47 ± 0.028 |
| TTGCACTCGTAAAAAGCACACATATAAAAACATTTA [CACACA_site7997] | 8.78 ± 0.42 |
| TTAAAAATGTTATAATGTACATATAATATTTTATGA [XGTACX_site5954] | 8.43 ± 0.35 |
| AAAACACATACTATATGTACATATAATAATTTATAT [XGTACX_site4525] | 8.95 ± 0.38 |
| TTCTGTATATAGTGTGCACACAATTAAAAAAAAAAA [CACACA_site8400] | 9.13 ± 0.43 |
| AAGAAAAAAAAAAAAAAAAAAAAAAAAAAAAAAAAA [TGCATGCA_negctrl_site263] | 7.96 ± 0.23 |
| ATTATAAATAAAATATGTACATATGTATAAATACAT [XGTACX_site4002] | 8.82 ± 0.38 |
| AAATATATTTTTTTTTGTACTCAAAAAGAAAAAAAA [XGTACX_site8540] | 8.13 ± 0.53 |
| ATAAAATTATATACTCGTACACAAAAAAAAAAAATA [XGTACX_site6035] | 8.77 ± 0.47 |

| Sequence | gcPBM binding intensity (ln) |
| --- | --- |
| AAAAATTGAATGATGTGTACTTAAAAGAATATAGAA [XGTACX_site6588] | 8.7 ± 0.54 |
| TTTACACTTTTTTTTGTACACACTAATAAGATTAAC [CACACA_site9304] | 8.85 ± 0.43 |
| ACATTACAATTATTATAATCAATATATAACCTCTAA [TGCATGCA_negctrl_site105] | 8.56 ± 0.37 |
| AAAAAAATTTTTAAAAGTACATTAATATTAATATGT [XGTACX_site5177] | 8.46 ± 0.46 |
| ATATATTATATTTAAGTGCATTAATTAAAATGCTTA [GTGCAC_site9403] | 8.34 ± 0.36 |
| CATTAATATATATATAGTACATATACACCTTCATTA [XGTACX_site8473] | 8.77 ± 0.45 |
| AAAAAAAATCAGACAGGTACACATTCCATGTTCAAA [XGTACX_site5380] | 8.86 ± 0.42 |
| TATGAAGTGCACAATACACACTAATTCTATATAAAT [CACACA_site7269] | 9.1 ± 0.45 |
| ATAATTAAATAAAAAAGTACACATACATCATAATGC [XGTACX_site7656] | 8.81 ± 0.46 |
| CAATTAAAAAATAATACATGCATATAAATAGATATT [TGCATGCA_site427] | 8.95 ± 0.42 |
| AAAATAAATATAAAATGTACTTATATATATATATAT [XGTACX_site7803] | 8.97 ± 0.16 |
| TAAGAATACGAAAGGTGTACACTGTGGAGACTTCAA [XGTACX_site2619] | 9.01 ± 0.37 |
| TATAATATATATGTAACACACAAAAGTTATATACTT [CACACA_site2868] | 8.79 ± 0.4 |
| TATATAATAACATATGCATGCAAGTAATATAACCAA [TGCATGCA_site324] | 9.32 ± 0.28 |
| AGGAAATGTTTATATACATGCATAATTAAATATAAT [TGCATGCA_site672] | 8.74 ± 0.46 |
| ATGTAATCATTTTCGACTTTTTTTTTTTTTTTTTTT [CACACA_negctrl_site1132] | 8.65 ± 0.51 |
| TTTTTAATTAATCTTATAAATATTTATAAATATATA [CACACA_negctrl_site1485] | 8.13 ± 0.38 |
| ATAAAATGCGCAAACACACACAAAAAAAAGATATAT [CACACA_site6875] | 9.48 ± 0.43 |
| CATATTGTCATTCTGGTGCACTTTTTTTTTTTTTTT | 8.99 ± 0.4 |
| ATATAATATAACAATACGCACACGTATACAAAAAAA [CACACA_site3151] | 9.08 ± 0.44 |
| TTTTCATGTTTTTTTCTTTATTTTTTTTTTTTTTTT [GTGCAC_negctrl_site511] | 8.38 ± 0.67 |
| TTTTTTTATTATTATTGTACAAGGCCTTAGGTGATT [XGTACX_site5050] | 8.68 ± 0.53 |

Source: the supplement of paper PMC11417369
